# Measurements as given in ChEMBL document CHEMBL1157539, “Thousands of chemical starting points for antimalarial lead identification” (Nature, 2010).
# Over roughly 13,000 compounds, “IFI” has its median near 4; the highest 2% begin near 17. Some of the results follow.
# Test: GSK_TCMDC: Inhibition Frequency Index (IFI). The number of non-kinase HTS assays where a compound showed > 50 % inhibition, expressed as a percentage of the number of such assays in which the compound was tested (-0 is zero)
# Format: functional
row,Compound,IFI
1,COc1cc2nc(N(C)C)nc(Nc3ccc4c(cnn4Cc4ccccc4)c3)c2cc1OC,10.2%
2,O=S(=O)(Nc1cccc(CCN2CCC(N3CCCCC3)CC2)c1)c1ccc2c(c1)OCCO2,0%
3,Cn1ccnc1-c1nc2ccccn2c1NCC(=O)Nc1ccccc1N1CCCCC1,1.45%
4,Cc1cc(=NN=Cc2ccc(F)cc2)c2cc(C(F)(F)F)ccc2[nH]1,0.71%
5,CCCCN(CCCC)C(=N)c1cccc2c1CCCC2,2.21%
6,Fc1ccc(C2N=C(SCCSC3=NC(c4ccc(F)cc4)C(c4ccc(F)cc4)N3)NC2c2ccc(F)cc2)cc1 (stereo not drawn),2.11%
7,Cc1cc(N[C@@H](Cc2ccccc2)C(=O)NCCOc2ccccc2)nc(NCCc2ccc(F)cc2)n1,11.4%
8,CC(=O)c1cccc2cc(C(=O)NC3CCC(CCN4CCc5ccc(C#N)cc5C4)CC3)[nH]c12 (stereo not drawn),3.79%
9,CCNC(C)(C)CN(Cc1ccc(-c2ccc(C(F)(F)F)cc2)cc1)C(=O)Cn1c(CCc2cccc(F)c2F)nc(=O)c2ccccc21,6.94%
10,O=C(NCCCCN1CCC(c2ccc3c(c2OCCOCCO)CCCC3)CC1)c1ccc(-c2ccc(C(F)(F)F)cc2)cc1,7.96%
11,NS(=O)(=O)NCCCN1CCN(c2ccccc2)CC1,-0%
12,O=C(Nc1ccc(C(=O)OCC(c2ccccc2)c2ccccc2)cc1)N[C@@H](Cc1ccc(O)cc1)C(=O)NC1CCN(Cc2ccc(O)cc2)C1 (stereo partly drawn),9.4%
13,COc1ccc(Nc2ncc3c(-c4cccc(NC(=O)Cc5ccncc5)c4)c[nH]c3n2)cc1OC,5.71%
14,COc1ccc(C2CC(=O)C3=C(C2)NC(C)=C(C(=O)OC(C)C)C3c2c(F)cccc2Cl)cc1OC (stereo not drawn),0.83%
15,CNC(=O)C1Cc2c([nH]c3ccc(Br)cc23)C2(CCN(CCc3ccccc3)CC2)N1 (stereo not drawn),6.57%
16,COc1ccc2nccc([C@@H](O)CN3CCC(NC(=O)c4ccc5cc[nH]c5c4)CC3)c2c1,2.24%
17,CCCC(CNCc1cccc(SC(F)(F)F)c1)CNc1cc(=O)c2ccccc2[nH]1 (stereo not drawn),1.45%
18,Cc1ccc(Cn2cnc(N3CC(C)NC(C)C3)cc2=O)cc1NC(=O)Nc1ccc(-c2ccccc2)cc1 (stereo not drawn),3.6%
19,CS(=O)(=O)c1cccc(-c2ccc3oc(C(N)=O)c(NC(=O)c4cccs4)c3c2)c1,8.65%
20,COc1cc(NCCCNC(=O)c2ccc(Cl)c(Cl)c2)nc2ccccc12,12.5%
21,COc1ccc(C(=O)C2CCN(CCCCNC(=O)c3ccc(NC(=O)c4cc(Cl)cc(Cl)c4)cc3)CC2)cc1,10.5%
22,CC(C)n1c(CC2CCN(CC3CCN(C(=O)/C=C/c4ccc(Cl)c(Cl)c4)CC3)CC2)nc2ccccc21,3.65%
23,CCN(CCCN1CCCCC1)c1cc(C)nc(Nc2ccc(Cl)cc2)n1,4.86%
